In PMC4094278, “The Dictyostelium discoideum RACK1 orthologue has roles in growth and development” (Cell Communication and Signaling : CCS, 2014):
These are yes or no findings as the source states them, for the method shown. Some binding calls cover weakened binding; strength is not graded here. Sequences can lack the tags named with a protein.

Tests used:
[1] = biological target: T1, D. discoideum G protein α2-subunit fused to the GAL4 DNA-binding domain (pAS2-1) (D. discoideum) (UniProt P16051); assay: two-hybrid; yeast Y190; DdRACK1 in pACT2 (GAL4 AD), G protein subunits in pAS2-1 (GAL4 BD); growth on SD/-Leu/-Trp/-His/+3AT plates and colony-lift β-galactosidase assay read at 1 to 6 h and after 24 h
T1 sequence: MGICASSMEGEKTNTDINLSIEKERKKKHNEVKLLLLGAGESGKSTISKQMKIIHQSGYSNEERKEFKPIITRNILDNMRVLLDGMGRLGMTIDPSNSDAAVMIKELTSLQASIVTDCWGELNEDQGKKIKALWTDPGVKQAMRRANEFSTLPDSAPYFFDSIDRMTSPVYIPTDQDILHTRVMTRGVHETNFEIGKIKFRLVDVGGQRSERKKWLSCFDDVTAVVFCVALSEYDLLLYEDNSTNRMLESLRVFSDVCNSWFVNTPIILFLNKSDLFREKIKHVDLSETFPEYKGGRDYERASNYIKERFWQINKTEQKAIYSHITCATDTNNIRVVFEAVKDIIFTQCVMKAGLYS

[2] = biological target: T2, D. discoideum G protein α4-subunit fused to the GAL4 DNA-binding domain (pAS2-1) (D. discoideum) (UniProt P34042); assay: as above
T2 sequence: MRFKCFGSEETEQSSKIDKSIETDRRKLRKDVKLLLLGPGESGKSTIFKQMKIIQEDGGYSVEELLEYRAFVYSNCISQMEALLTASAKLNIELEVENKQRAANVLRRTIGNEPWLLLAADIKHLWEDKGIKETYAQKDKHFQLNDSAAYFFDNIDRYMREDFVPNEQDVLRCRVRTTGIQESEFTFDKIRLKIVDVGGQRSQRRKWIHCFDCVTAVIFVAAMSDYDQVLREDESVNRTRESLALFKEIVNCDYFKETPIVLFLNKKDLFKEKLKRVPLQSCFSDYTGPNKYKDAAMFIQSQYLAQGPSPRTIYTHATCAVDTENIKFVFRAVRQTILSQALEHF

binding [1]: binds | binding [2]: binds weakly
B1: DdRACK1 fused to the GAL4 activation domain (pACT2) (protein, UniProt P46800 1-329)
chain: MEQQKAPQVTYLEVGSLVGHNGFVTSIAVSPENPDTIISSSRDKTVMVWQLTPTDATSPGKAHRSLKGHSHFVQDVVISHDGQFALSGSWDNTLRLWDITKGVSTRLFKGHTQDVMSVAFSSDNRQIISGSRDATIKVWNTLGECKFTLEGPEAHQDWVSCIRFSPNTPTIVSGSWDNKVKIWDIKSFKCNHTLTDHTGYVNTVTISPDGSLCASGGKDTFACLWELSSGKPLYKLEARNTINALAFSPNKYWLSAATDDKIIIWDLLTKQVLAEIVPEVKEQAFDSKKKKESKPKAPACLSLAWSADGSVLYAGYNDGLIRVYKSSSQ
